The list shows a part of the results.
Key:
HSkMC = human skeletal muscle cells; test: cytotoxicity call (relative viability < 0.9); settings: 10 µM
HepG2 = test: cytotoxicity call (relative viability < 0.9); settings: 10 µM
S. aureus RN4220 = test: growth inhibition call (relative growth <= 0.2); settings: 50 µM

SMILES | cytotoxicity call (HSkMC) | cytotoxicity call (HepG2) | growth inhibition call (S. aureus RN4220)
C[C@@H]1CN([C@H](C)CO)C(=O)c2cc(C#CC3(O)CCCC3)cnc2O[C@H]1CN(C)S(=O)(=O)c1cccc(F)c1 | inactive | inactive | inactive
CC(C)(C)[S@](=O)N1Cc2cc(C(=O)NCc3ccc4c(c3)OCO4)nc(-c3cccc(-c4cccnc4)c3)c2[C@@H]1CCO | inactive | inactive | inactive
O=C(O)c1ccccc1 | inactive | inactive | inactive
CS(=O)(=O)NCc1ncn2c1CN(C(=O)[C@H]1CCCO1)CCC2 | inactive | inactive | inactive
COc1cccc2c1C(=O)c1c(O)c3c(c(O)c1C2=O)CC(O)(C(=O)CO)CC3OC1CC(N)C(O)C(C)O1.Cl (stereo not given) | inactive | active | inactive
COc1cccc(S(=O)(=O)N(C)C[C@@H]2Oc3ncc(C#CC(C)C)cc3C(=O)N([C@@H](C)CO)C[C@@H]2C)c1 | inactive | inactive | inactive
OCc1ccc2c(c1)NCCO2 | inactive | inactive | inactive
C[C@@H]1CN([C@@H](C)CO)C(=O)c2cc(NC(=O)Nc3ccc(C(F)(F)F)cc3)ccc2O[C@@H](C)CCCCO[C@@H]1CN(C)Cc1ccc(C(=O)O)cc1 | inactive | inactive | inactive
C[C@H]1CN([C@@H](C)CO)S(=O)(=O)c2ccc(Br)cc2O[C@@H]1CN(C)C(=O)c1cnccn1 | inactive | inactive | inactive
C[C@@H]1CN([C@H](C)CO)C(=O)Cc2cc(NC(=O)CCN3CCOCC3)ccc2O[C@H]1CN(C)C(=O)Nc1ccc2c(c1)OCO2 | inactive | inactive | inactive
COc1ccc(CN(C)C[C@@H]2OCCCC[C@@H](C)Oc3ccc(NC(=O)Nc4ccc(C(F)(F)F)cc4)cc3C(=O)N([C@H](C)CO)C[C@H]2C)cc1 | active | active | inactive
C[C@@H]1CN([C@H](C)CO)C(=O)c2cc(NS(=O)(=O)c3cccs3)ccc2O[C@H]1CN(C)Cc1ccncc1 | inactive | inactive | inactive
C[C@@H]1CN([C@H](C)CO)C(=O)c2cc(NC(=O)Cc3ccccc3)ccc2O[C@@H]1CN(C)C(=O)Nc1ccc(C(F)(F)F)cc1 | inactive | inactive | inactive
CO[C@H]1CN(C)C(=O)c2cc(NC(=O)Nc3cccc(F)c3)ccc2OC[C@@H](C)N(C(=O)Nc2c(C)noc2C)C[C@@H]1C | inactive | inactive | inactive
OC[C@H]1CC[C@@H]2O[C@H](CCc3ccc(C#Cc4ccccc4)cc3)[C@@H](n3cc(-c4ccccc4)nn3)C[C@@H]2O1 | inactive | active | inactive
C[C@H]1CN([C@@H](C)CO)C(=O)c2cc(-c3ccncc3)cnc2O[C@H]1CN(C)S(=O)(=O)c1ccc(F)cc1 | inactive | inactive | inactive
C[C@@H]1CCCCO[C@@H](CN(C)S(=O)(=O)c2cccs2)[C@@H](C)CN([C@H](C)CO)C(=O)c2cc(NC(=O)Nc3cccc4ccccc34)ccc2O1 | inactive | inactive | inactive
Cc1noc(C)c1S(=O)(=O)N(C)C[C@H]1Oc2ccc(NC(=O)C3CCCCC3)cc2CC(=O)N([C@@H](C)CO)C[C@H]1C | inactive | inactive | inactive
O=C(C[C@H]1C=C[C@@H](NC(=O)c2cnccn2)[C@@H](CO)O1)NCc1ccccc1F | inactive | inactive | inactive
C[C@H](CO)N1C[C@H](C)[C@H](CN(C)C(=O)NC2CCCCC2)Oc2ccc(NS(=O)(=O)c3cn(C)cn3)cc2C1=O | inactive | inactive | inactive
CCC(C)(C)c1ccc(CC(C)CN2CC(C)OC(C)C2)cc1.Cl (stereo not given) | inactive | inactive | inactive
[N-]=[N+]=NCCOCCNC(=O)CCCOc1ccc(CS(=O)c2nnc(-c3ccc(F)cc3)o2)nc1 (stereo not given) | active | active | active
Cc1noc(C)c1NC(=O)N[C@@H]1CC[C@H](CC(=O)NCCCN(C)C)O[C@@H]1CO | inactive | inactive | inactive
Cl.O=C1NCC2(CCN(CCc3ccccc3)CC2)O1 | inactive | inactive | inactive
Cc1cc(C(=O)Nc2cccc3c2O[C@H](CN(C)C(=O)Nc2c(C)noc2C)[C@@H](C)CN([C@@H](C)CO)C3=O)n(C)n1 | inactive | inactive | inactive
C[C@H]1CCCCO[C@H](CN(C)S(=O)(=O)c2cccs2)[C@@H](C)CN([C@@H](C)CO)C(=O)c2cc(NS(=O)(=O)c3cn(C)cn3)ccc2O1 | inactive | inactive | inactive
C[C@@H]1CN([C@@H](C)CO)C(=O)Cc2cc(NC(=O)NC3CCCCC3)ccc2O[C@H]1CN(C)C(=O)Nc1cccc2ccccc12 | inactive | inactive | inactive
C[C@H](CO)N1C[C@H](C)[C@@H](CN(C)CC2CC2)Oc2ccc(NS(=O)(=O)c3cn(C)cn3)cc2C1=O | inactive | inactive | inactive

SMILES | cytotoxicity call (HSkMC) | cytotoxicity call (HepG2) | growth inhibition call (S. aureus RN4220)
C[C@@H]1CCCCO[C@H](CN(C)C(=O)Nc2cccc3ccccc23)[C@@H](C)CN([C@H](C)CO)C(=O)c2cc(N(C)C)ccc2O1 | inactive | inactive | inactive
Cc1ccc(S(=O)(=O)N(C)C[C@H]2OCCCC[C@@H](C)Oc3ccc(NC(=O)Nc4ccccc4)cc3C(=O)N([C@H](C)CO)C[C@H]2C)cc1 | inactive | inactive | inactive
CC(C)NC(=O)Nc1ccc2c(c1)CC(=O)N([C@@H](C)CO)C[C@@H](C)[C@H](CN(C)Cc1ccc3c(c1)OCO3)O2 | inactive | inactive | inactive
Cc1noc(C)c1S(=O)(=O)N(C)C[C@H]1Oc2ccc(NC(=O)CCN3CCOCC3)cc2CC(=O)N([C@H](C)CO)C[C@@H]1C | inactive | inactive | inactive
C[C@@H]1CCCCO[C@H](CN(C)S(=O)(=O)c2ccc(F)cc2)[C@@H](C)CN([C@H](C)CO)C(=O)c2cc(NC(=O)c3ccccc3)ccc2O1 | inactive | inactive | inactive
Cc1ccc(S(=O)(=O)N(C)C[C@@H]2Oc3c(NS(=O)(=O)c4ccc(F)cc4)cccc3C(=O)N([C@@H](C)CO)C[C@H]2C)cc1 | inactive | inactive | inactive
C[C@@H]1CCCCO[C@H](CN(C)S(=O)(=O)c2ccc(Cl)cc2)[C@@H](C)CN([C@@H](C)CO)C(=O)c2cc(NS(=O)(=O)c3ccc(F)cc3)ccc2O1 | inactive | inactive | inactive
C[C@@H]1CN([C@H](C)CO)C(=O)c2cccc(NC(=O)c3ccncc3)c2O[C@H]1CN(C)C(=O)Nc1ccc2c(c1)OCO2 | inactive | inactive | inactive
COCCNC(=O)C[C@@H]1CC[C@H]2[C@@H](COC[C@H](O)CN2S(=O)(=O)c2ccccc2F)O1 | inactive | inactive | inactive
C[C@H]1CCCCO[C@H](CN(C)S(=O)(=O)c2ccc(F)cc2)[C@@H](C)CN([C@@H](C)CO)C(=O)c2cc(NS(C)(=O)=O)ccc2O1 | inactive | inactive | inactive
C[C@@H]1CN([C@H](C)CO)C(=O)c2cccc(NC(=O)c3nc4ccccc4s3)c2O[C@H]1CN(C)Cc1ccc(Oc2ccccc2)cc1 | inactive | inactive | inactive
COc1ccc(S(=O)(=O)N(C)C[C@H]2OCCCC[C@H](C)Oc3ccc(NC(=O)Nc4ccc(C(F)(F)F)cc4)cc3C(=O)N([C@@H](C)CO)C[C@@H]2C)cc1 | inactive | inactive | inactive
CC(C)NC(=O)Nc1ccc2c(c1)CC(=O)N([C@H](C)CO)C[C@H](C)[C@H](CN(C)C(=O)Nc1ccc3c(c1)OCO3)O2 | inactive | inactive | inactive
C[C@H]1CN([C@@H](C)CO)S(=O)(=O)c2ccc(C#Cc3ccc(F)cc3)cc2O[C@@H]1CN(C)C(=O)c1ccccn1 | inactive | inactive | inactive
O=C(C[C@H]1CC=CCCC(=O)OCCNC1=O)NCCO | inactive | inactive | inactive
COc1ccc(S(=O)(=O)N(C)C[C@H]2Oc3ccc(NC(=O)CCN4CCOCC4)cc3CC(=O)N([C@H](C)CO)C[C@@H]2C)cc1 | inactive | inactive | inactive
O=C(C[C@@H]1CC[C@H]2[C@@H](COC[C@@H](O)CN2S(=O)(=O)c2cccc(F)c2)O1)NCCCN1CCOCC1 | inactive | inactive | inactive
C[C@H](CO)N1C[C@H](C)[C@H](CN(C)S(=O)(=O)c2cccs2)Oc2c(NC(=O)C3CC3)cccc2C1=O | inactive | inactive | inactive
CCN(CC)/[N+]([O-])=N/OCOC(C)=O | inactive | inactive | inactive
Nc1ccn([C@@H]2O[C@H](CO)[C@@H](O)[C@H]2O)c(=O)n1 | inactive | inactive | inactive
CO[C@@H]1CN(C)C(=O)c2cc(NS(=O)(=O)c3ccccc3)ccc2OC[C@@H](C)N(C(=O)NC(C)C)C[C@@H]1C | inactive | inactive | inactive
COc1ccc(NC(=O)Nc2ccc3c(c2)C(=O)N([C@H](C)CO)C[C@H](C)[C@H](CN(C)C(=O)c2ccccc2)OCCCC[C@H](C)O3)cc1 | inactive | inactive | inactive
C[C@H]1CN([C@@H](C)CO)C(=O)c2cc(NC(=O)CCCCCC(=O)Nc3ccccc3N)ccc2O[C@H]1CN(C)C(=O)Nc1ccc(F)cc1 | inactive | inactive | inactive
Cc1ccc(-c2ncns2)cc1 | inactive | inactive | inactive
C[C@@H](C(=O)N(C)C[C@H]1OCc2ccccc2-c2c(n(C)c3ccccc23)C(=O)N([C@@H](C)CO)C[C@@H]1C)c1ccccc1 | inactive | inactive | inactive
C[C@H](CO)N1C[C@H](C)[C@@H](CN(C)S(=O)(=O)c2ccccc2)Oc2c(NS(=O)(=O)c3cn(C)cn3)cccc2C1=O | inactive | inactive | inactive
C[C@H]1CN([C@@H](C)CO)S(=O)(=O)c2ccc(C#CCN(C)C)cc2O[C@@H]1CN(C)C(=O)C1CCCCC1 | inactive | inactive | inactive
